Test results published in publication PMC6212790.
The list shows a part of the results. At the low end of the ranking the order means little.
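Note: rank score from −0.5 (least bound) to 0.5 (best bound).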

What follows are sequences tested against T1, GST-Rok-C97-191 (UniProt O34857) (assay: protein binding microarray). Conditions: Rok is a gene silencer of Bacillus subtilis; high values mean tight binding; most listed sequences are background and not binding sites; double strand, one strand shown.
T1 sequence: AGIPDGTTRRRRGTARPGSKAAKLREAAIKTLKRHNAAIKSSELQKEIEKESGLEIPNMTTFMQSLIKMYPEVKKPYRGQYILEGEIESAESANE
GCTGACGA was tested, and the binding signal was -0.179 E-score. In the case of CTACCTGA, the binding signal is reported as 0.0723 E-score. Sequence GGATCTGA has a binding signal of -0.158 E-score. For GGTGCCCA, the binding signal was -0.252 E-score. ATGCCTCA gave a binding signal of -0.00521 E-score. AAACAACC showed a binding signal of -0.111 E-score. Sequence ATGCTGCC has a binding signal of -0.192 E-score. Sequence GGTTCACA has a binding signal of 0.00148 E-score. With GGGTTCCA the binding signal was -0.26 E-score. With GAGCGTGA the binding signal was -0.137 E-score. Work on AGGTGTGC yielded a binding signal of -0.113 E-score. AATCAATT showed a binding signal of 0.0514 E-score. With CATCCTTC the binding signal was -0.179 E-score. In the case of CAGCATGA, the binding signal is reported as -0.0331 E-score. With CCTTCTCC the binding signal was -0.165 E-score. GTCAAGCA was tested, and the binding signal was -0.0462 E-score. With AACCTTTG the binding signal was -0.142 E-score. CATGTTGG was tested, and the binding signal was -0.144 E-score. CTTCCGGC was tested, and the binding signal was -0.307 E-score. Sequence CACAGTGC has a binding signal of 0.0225 E-score. In the case of CGATGGCG, the binding signal is reported as -0.305 E-score. Sequence GCCGATTA has a binding signal of -0.0695 E-score. In the case of GCCCTCAC, the binding signal is reported as -0.26 E-score. With CCCGCCTA the binding signal was -0.243 E-score. Sequence ACTCTTTA has a binding signal of 0.0447 E-score. Work on GCGGAAAA yielded a binding signal of 0.177 E-score. CAATTCTG was tested, and the binding signal was 0.00181 E-score. With ACGCGTTC the binding signal was 0.033 E-score. Sequence CGATATGC has a binding signal of 0.00452 E-score. For GCGCCTGA, the binding signal was -0.293 E-score. With CACAAAGG the binding signal was -0.22 E-score. With TGCTCGAA the binding signal was -0.127 E-score. In the case of AGCCCTCA, the binding signal is reported as -0.158 E-score. In the case of GCATTGTA, the binding signal is reported as 0.112 E-score. Sequence CCGCCTTA has a binding signal of -0.0331 E-score. With AGCGCAAT the binding signal was 0.0885 E-score. Sequence ACTCTCAG has a binding signal of -0.135 E-score. For ATCTTTCG, the binding signal was 0.116 E-score. Sequence GGTACGAA has a binding signal of -0.0178 E-score. In the case of AACGCCTC, the binding signal is reported as -0.191 E-score. ACAAAGGT showed a binding signal of -0.115 E-score. Work on ACGGCGAT yielded a binding signal of -0.0579 E-score. In the case of CGTTCTTA, the binding signal is reported as 0.0387 E-score. With CCGTGCTC the binding signal was -0.205 E-score. With CGCGGCAC the binding signal was -0.203 E-score. With ACTTGTTC the binding signal was 0.195 E-score. ACGGGGCG was tested, and the binding signal was -0.381 E-score. For CCAGGCTC, the binding signal was -0.165 E-score. In the case of CCACTGTC, the binding signal is reported as -0.118 E-score. With AGGCAAAA the binding signal was -0.0274 E-score. CAGGCGAG showed a binding signal of -0.13 E-score. In the case of ACCCTGCT, the binding signal is reported as -0.181 E-score. Work on ACGGCAGT yielded a binding signal of -0.16 E-score. For GACAAGTA, the binding signal was 0.226 E-score. For ACCACCAG, the binding signal was -0.0609 E-score. Work on GCAAATCA yielded a binding signal of 0.00425 E-score. With CAATAATG the binding signal was -0.00138 E-score. With ATTGTGAG the binding signal was 0.116 E-score. For GATCGGGC, the binding signal was -0.0269 E-score. Work on ACTCGGAG yielded a binding signal of -0.0612 E-score. For ATTAAGCG, the binding signal was 0.231 E-score. Sequence CGAAGGAG has a binding signal of -0.0169 E-score. Work on AAGTAACG yielded a binding signal of 0.0158 E-score. For CCGGGCCG, the binding signal was -0.376 E-score. In the case of ATATCTAA, the binding signal is reported as 0.351 E-score. Work on TCATATAA yielded a binding signal of 0.126 E-score. Work on CGAATTCG yielded a binding signal of 0.0271 E-score. TCTCTCAA was tested, and the binding signal was 0.0872 E-score. Work on AGCGAATC yielded a binding signal of 0.0103 E-score. Sequence AGGTTCGG has a binding signal of -0.0647 E-score. ATCCCTGG gave a binding signal of -0.0674 E-score. For CTGCACTA, the binding signal was 0.00252 E-score. Work on GACGTCAA yielded a binding signal of 0.0337 E-score. With ACGCGAAC the binding signal was -0.0799 E-score. Sequence TGTGGTAA has a binding signal of 0.205 E-score. In the case of ACTAACTG, the binding signal is reported as 0.16 E-score. For TGCGGCAA, the binding signal was 0.0751 E-score. With ACGCCCTA the binding signal was -0.261 E-score. Sequence CATCGCGA has a binding signal of 0.085 E-score. Work on AGAACCAC yielded a binding signal of 0.141 E-score. Work on AAACTGAA yielded a binding signal of 0.0272 E-score. With GCAATCCA the binding signal was -0.15 E-score. CGCTGATA gave a binding signal of -0.0608 E-score. Sequence ATCTCGCA has a binding signal of 0.137 E-score. AGGTTCAA was tested, and the binding signal was -0.0693 E-score. For CTTAGCTC, the binding signal was -0.0409 E-score. CGATGCAC showed a binding signal of -0.156 E-score. For CATAGGGA, the binding signal was -0.19 E-score. In the case of CAGTCATG, the binding signal is reported as -0.195 E-score. AATATCTA showed a binding signal of 0.343 E-score. CTATGGCA showed a binding signal of 0.0479 E-score. GACCTACC showed a binding signal of -0.115 E-score. In the case of AGTATATA, the binding signal is reported as 0.428 E-score. AAAGAAGA showed a binding signal of -0.141 E-score. Sequence AAGCATGT has a binding signal of -0.048 E-score. In the case of AGGGAGCC, the binding signal is reported as -0.364 E-score. With AGAATCAC the binding signal was 0.101 E-score. With CAACGCGA the binding signal was 0.0243 E-score. Sequence TAGGCTCA has a binding signal of -0.303 E-score. With CTATTACA the binding signal was 0.35 E-score. Sequence ACTGAGTA has a binding signal of 0.0348 E-score. With CTTGTGAC the binding signal was 0.0172 E-score. AACTAACC was tested, and the binding signal was 0.141 E-score. Sequence ACAGCCAA has a binding signal of -0.0329 E-score. GGCTTAAC gave a binding signal of -0.175 E-score. For CACATAAG, the binding signal was 0.133 E-score. With GTCGGACA the binding signal was -0.0765 E-score. Sequence AAAACTCA has a binding signal of 0.0997 E-score. With AAAAGGCG the binding signal was -0.0834 E-score. Sequence AGGTCACA has a binding signal of -0.186 E-score. Sequence CCTCTGAG has a binding signal of -0.125 E-score. Sequence AGGAGGAC has a binding signal of -0.214 E-score. Sequence AGAAGGCA has a binding signal of -0.0906 E-score. For GTCAAATA, the binding signal was 0.103 E-score. CTCGACAA gave a binding signal of -0.0854 E-score. With CACCAGGC the binding signal was -0.168 E-score. With CTTGGGAA the binding signal was -0.111 E-score. TAAACCGA gave a binding signal of 0.0158 E-score. CACCCGTA gave a binding signal of -0.165 E-score. For GCGGATCC, the binding signal was -0.187 E-score. CCCTCTAG was tested, and the binding signal was -0.126 E-score. With AGTTCAGC the binding signal was 0.16 E-score. Work on AGATAGGG yielded a binding signal of -0.0405 E-score. For CGTGACGA, the binding signal was -0.268 E-score. Sequence CTCGCCAC has a binding signal of -0.0578 E-score. ACCAGAAA showed a binding signal of -0.0309 E-score. For ATGAGGCG, the binding signal was -0.173 E-score. Sequence ATTAAGAA has a binding signal of 0.171 E-score. For AGGTTCTG, the binding signal was -0.0639 E-score. With CGATTCTA the binding signal was 0.285 E-score. With AGTCTCGA the binding signal was -0.0388 E-score. GATTGGCA was tested, and the binding signal was -0.0135 E-score. Sequence GCGATAGC has a binding signal of -0.158 E-score. Work on GAAATGGC yielded a binding signal of -0.16 E-score. CCCAATAC gave a binding signal of -0.0777 E-score. For CCATTCGG, the binding signal was -0.12 E-score. Sequence AAAGGCTG has a binding signal of -0.113 E-score. Work on CATGAACC yielded a binding signal of -0.273 E-score. In the case of CCAAACAG, the binding signal is reported as -0.128 E-score. For AGAGCTAG, the binding signal was 0.0403 E-score. In the case of GACGACGA, the binding signal is reported as -0.104 E-score. For ACCTACTA, the binding signal was 0.343 E-score. Work on AGCACGCG yielded a binding signal of 0.00152 E-score. ACTACCAG showed a binding signal of 0.213 E-score. CATCGAAA was tested, and the binding signal was 0.033 E-score. In the case of CAGACCAC, the binding signal is reported as -0.188 E-score. In the case of ATCATTAG, the binding signal is reported as 0.103 E-score. CCCGCCTC was tested, and the binding signal was -0.335 E-score. Work on CAGCTTTC yielded a binding signal of 0.0558 E-score. CCATTTTC gave a binding signal of -0.132 E-score. CCCAAAAA was tested, and the binding signal was 0.161 E-score. AAGTGTGG showed a binding signal of -0.0423 E-score. With CCGGCGCA the binding signal was -0.273 E-score. For ATAGCCAA, the binding signal was 0.0621 E-score. AAAGGGCA showed a binding signal of 0.0346 E-score. In the case of AGTGCTCC, the binding signal is reported as -0.221 E-score. With CCTCCGTC the binding signal was -0.355 E-score. Sequence GCTGTTCC has a binding signal of -0.12 E-score. Sequence AACTCACA has a binding signal of 0.0954 E-score. Work on CAAAGTTA yielded a binding signal of 0.0336 E-score. CTCCGTAA was tested, and the binding signal was -0.153 E-score. CCCCGCTA was tested, and the binding signal was -0.195 E-score. Work on CTACGAAC yielded a binding signal of 0.149 E-score. In the case of CTTCATTA, the binding signal is reported as 0.0438 E-score. Sequence CACCTCAA has a binding signal of 0.0883 E-score. For CGACTTCA, the binding signal was -0.109 E-score. GCACAAGC gave a binding signal of -0.233 E-score. Work on GGACACAC yielded a binding signal of -0.142 E-score. GCCTCATA was tested, and the binding signal was -0.156 E-score. Work on ATCATTTG yielded a binding signal of 0.138 E-score. TAATTGAA was tested, and the binding signal was 0.0505 E-score. Sequence AATGTAAC has a binding signal of 0.166 E-score.
